Values joined by “and” are separate entries in the source; they are usually repeats but may differ in a detail not shown here. Equal entries are not always repeated. Out of some 410,000 compounds screened, about 6,400 (1.6%) were called active. Inconclusive results, whose numbers are uncertain, are shown with a selection of clear calls. Calls follow the shape of the dose curve; as a rule, active = well fitted inhibition curve with a large enough effect; inconclusive = small, poorly fitted or top-dose-only effect; inactive = no such curve, though single readings can be large or run the other way. Where the call is inconclusive, the potency comes from a doubtful curve fit.
molecular target: Glucagon-like peptide 1 receptor (Homo sapiens) (UniProt P43220); assay: qHTS of GLP-1 Receptor Inverse Agonists (Inhibition Mode); details: HEK293 GLP-1R CRE-luciferase, luminescence, 24 h, GLP-1R form is constitutively active; series mostly up to 38.3 µM; also: nearly all actives have a fitted effect of over 55% in size
Procedure, shortened: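 Constitutively active GLP-1R drives a cAMP-responsive luciferase in stably transfected HEK293 cells; test compounds are added after overnight (12 h) attachment and left 24 hr, and signal loss in luminescence marks inhibition.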
Potency is read from the fitted curve at half-maximal effect; tags tell the direction and shape of the fitted curve.

UniProt P43220, sequence (P43220 whole entry, looked up): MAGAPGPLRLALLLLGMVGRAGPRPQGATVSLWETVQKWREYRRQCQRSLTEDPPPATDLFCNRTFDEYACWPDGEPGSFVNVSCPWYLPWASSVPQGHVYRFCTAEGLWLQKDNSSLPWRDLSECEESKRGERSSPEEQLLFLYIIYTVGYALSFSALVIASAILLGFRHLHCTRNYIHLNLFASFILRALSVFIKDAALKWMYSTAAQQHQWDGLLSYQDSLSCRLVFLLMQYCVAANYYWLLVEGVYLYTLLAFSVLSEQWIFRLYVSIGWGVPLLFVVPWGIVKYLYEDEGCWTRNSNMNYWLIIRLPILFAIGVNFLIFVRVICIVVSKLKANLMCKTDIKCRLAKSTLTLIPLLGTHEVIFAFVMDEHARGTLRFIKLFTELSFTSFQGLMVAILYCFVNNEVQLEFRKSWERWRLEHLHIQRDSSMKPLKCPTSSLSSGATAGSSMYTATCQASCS

| SMILES | Potency |
| --- | --- |
| CCCCC(=O)Nc1ccc(C(=O)c2ccccc2)cc1 | inconclusive: 28.2 µM [inhibitor, single point] |
| COc1ccc2nc(SCC(=O)c3c(C)[nH]c4ccccc34)nc(C)c2c1 | inactive |
| Cc1ccc(C)c(N(Cc2ccccc2F)S(C)(=O)=O)c1 | inconclusive: 14.1 µM [inhibitor, partial curve, poor fit] |
| Cc1c(CN2CCC(C(=O)Nc3cccc(-c4cccc(Cl)c4)c3)CC2)cnn1C | inconclusive: 11.2 µM [inhibitor, partial curve, poor fit] |
| CCOc1ccc(-c2nnc(SCC(=O)NCCC(C)C)nc2-c2ccc(OCC)c(OC)c2)cc1OC | inactive |
| COc1ccc(-c2oc3ncnc(NCCCN(C)C)c3c2-c2ccc(OC)cc2)cc1 | inconclusive: 11.2 µM [inhibitor, partial curve, poor fit] |
| Cc1cn2c(=O)c(S(=O)(=O)NCCc3ccccc3)c(C)nc2s1 | inactive |
| COc1cccc(C(=O)C2CCCN(Cc3cccn3-c3ccccn3)C2)c1 (stereo unspecified) | inconclusive: 10 µM [inhibitor, partial curve, poor fit] |
| CC1CCCCN1CC(=O)Nc1ccc2c(c1)OC(F)(F)O2 (stereo unspecified) | inconclusive: 31.6 µM [inhibitor, single point] |
| COc1cccc(C(=O)NCC(c2ccc(N(C)C)cc2)N2CCCC2)c1OC (stereo unspecified) | inactive |
| Cc1onc(-c2c(F)cccc2Cl)c1C(=O)N1CCc2ccccc2C1 | inconclusive: 22.4 µM [inhibitor, single point] |
| CCc1cccc(CC)c1-n1c(SCC(=O)N2CCc3ccccc3C2)nnc1-c1cccnc1 | inconclusive: 12.6 µM [inhibitor, single point] |
| Cc1nc2ccccc2n1CC(=O)NC1CCCCCC1 | inactive |
| CC(=O)c1ccc(-c2ccc([C@H]3[C@@H]4C=CCC[C@@]4(C)C(=O)N3Cc3ccccc3)c(F)c2)cc1 | active: 11.2 µM |
| Cc1ccc(OCC(=O)N2CCC3(CC2)CC(=O)c2ccccc2O3)cc1 | inconclusive: 11.2 µM [inhibitor, partial curve, poor fit] |
| O=C(Nc1ccc(OC(F)F)c(Cl)c1)c1cccc(OC(F)F)c1 | inconclusive: 7.94 µM [inhibitor, partial curve, poor fit] |
| CCCCCCCCN1C(=O)[C@H](CC(=O)NCc2cccc(C(F)(F)F)c2)C[C@@]2(C(=O)OC)CC(C)(C)CC=C12 | inconclusive: 2 µM [inhibitor, full curve] |
| CC(C)(/C=N/O)/[N+]([O-])=C/c1ccccc1C(F)(F)F | inactive |
| CC(=O)NC(=S)Nc1cc(C(F)(F)F)ccc1N1CCOCC1 | inconclusive: 22.4 µM [inhibitor, single point] |
| O=C(OCC(=O)N1CCC(Cc2ccccc2)CC1)c1ccc(CO)cc1 | inconclusive: 11.2 µM [inhibitor, partial curve, poor fit] |
| COc1ccccc1CNc1ncnc2c1cnn2-c1ccccc1 | inconclusive: 28.2 µM [inhibitor, single point] |
| COc1ccccc1-n1cc(CN2CCCC(CO)(Cc3cccc(Cl)c3)C2)cn1 (stereo unspecified) | inconclusive: 12.6 µM [inhibitor, partial curve, poor fit] |

| SMILES | Potency |
| --- | --- |
| O=C(COc1ccc2ccc(=O)oc2c1)Nc1cccc(S(=O)(=O)N2CCCCC2)c1 | inactive |
| CC(NC(=O)c1cc(Sc2ccc(F)cc2F)nc2ccccc12)c1ccccc1 (stereo unspecified) | inconclusive: 10 µM [inhibitor, partial curve] |
| Nc1ccc(CNC(=O)OCC2c3ccccc3-c3ccccc32)cc1 | inconclusive: 0.355 µM [inhibitor, full curve, poor fit] |
| COc1cccc(-c2cc(=O)c3cc(NC(=O)c4ccc(Cl)cc4)ccc3[nH]2)c1 | inconclusive: 0.355 µM [inhibitor, full curve, poor fit] |
| CC(C)OC(=O)CSc1nc(N2CCOCC2)c2c(c1C#N)CC(C)(C)OC2 | inconclusive: 3.55 µM [inhibitor, partial curve, poor fit] |
| CN(C)C1(CNC(=O)C2CCN(S(=O)(=O)c3cc(Cl)ccc3Cl)CC2)CCCCC1 | active: 10 µM |
| CC(C)(C)NC(=O)C1CC1(c1ccccc1)c1ccccc1 (stereo unspecified) | inconclusive: 12.6 µM [inhibitor, partial curve, poor fit] |
| COc1cccc(NC(=O)CCNS(=O)(=O)c2ccc(Br)s2)c1 | inconclusive: 11.2 µM [inhibitor, single point] and inconclusive: 10 µM [inhibitor, partial curve, poor fit] |
| Cc1nn(-c2ccccc2)c(Cl)c1/C=C(\C#N)C(=O)NC(C)C | inconclusive: 28.2 µM [inhibitor, single point] |
| COc1ccccc1C(=O)OCc1c(-c2ccccc2)ncc2ccccc12 | inconclusive: 25.1 µM [inhibitor, single point] |
| CS(=O)(=O)N(CCc1ccccc1)CC(=O)Nc1ccc(Br)cc1F | inconclusive: 10 µM [inhibitor, partial curve] |
| Cc1ccc(S(=O)(=O)N2CCN(Cc3cccc(F)c3)CC2)cc1 | inconclusive: 12.6 µM [inhibitor, single point] |
| COc1ccc(Cl)cc1NC(=O)NNC(=O)c1ccccn1 | inconclusive: 11.2 µM [inhibitor, single point] |
| Clc1ccccc1N1CCN(Cc2ccc(Br)o2)CC1 | inconclusive: 11.2 µM [inhibitor, partial curve] |
| COC(=O)\C(C(C)=O)=C(/C=C/C=C/C=C/N(C)C)N(C)C | inactive |
| Cc1ccc(-c2nc3cc(C(C)C)ccc3o2)cc1NC(=O)c1cccs1 | inconclusive: 10 µM [inhibitor, partial curve, poor fit] |
| N#Cc1c(NC(=O)c2ccccc2)sc2c1CCCCC2 | inactive |
| COc1ccccc1NC(=O)Cc1c(C(=O)O)[nH]c2ccc(Cl)cc12 | inactive |
| COc1cc(Cn2c(=O)sc3ccccc32)ccc1OC(C)C | inconclusive: 28.2 µM [inhibitor, single point] |
| O=C(Cc1cccs1)N1CCN(S(=O)(=O)c2ccc(Cl)c(C(F)(F)F)c2)CC1 | inconclusive: 11.2 µM [inhibitor, single point] |
| CN(NC(=O)Nc1ccc(Cl)cc1)c1c(Cl)c(Cl)nn1C | inconclusive: 22.4 µM [inhibitor, single point] |
| COCCn1c(C)cc(O)c(C(c2ccccc2)N2CCN(C)CC2)c1=O (stereo unspecified) | inactive |

| SMILES | Potency |
| --- | --- |
| CCCCOc1ccc(CNC(=O)C2CCN(c3nnc(-n4cccc4CNc4ccc(C)cc4)s3)CC2)cc1 | inconclusive: 2 µM [inhibitor, full curve, poor fit] |
| CCN(CC)Cc1nc2c(c(=O)[nH]1)C1(CCCC1)Cc1ccccc1-2 | inconclusive: 12.6 µM [inhibitor, single point] |
| O=C(CSC1CCCCC1)N1CCN(c2ccccc2)CC1 | inconclusive: 31.6 µM [inhibitor, single point] |
| O=c1c(-c2n[nH]c(=S)n2-c2ccccc2)cccn1Cc1cccc(Cl)c1 | inactive |
| N#Cc1nc(N2CCCC2)nc(N2CCCC2)n1 | inconclusive: 10 µM [inhibitor, partial curve] |
| C[C@H](O)[C@@H]1CN2CCc3c([nH]c4ccccc34)[C@@H]2C[C@@H]1N(C)Cc1cc(Cl)cc(Cl)c1 | inconclusive: 12.6 µM [inhibitor, single point] |
| CCOC(=O)c1cnc(SC2CCc3ccccc3C2=O)nc1N (stereo unspecified) | inconclusive: 11.2 µM [inhibitor, single point] |
| CCOc1ccc(NC(=O)C2Cc3ccccc3N2C(=O)c2ccccc2)cc1 (stereo unspecified) | inconclusive: 10 µM [inhibitor, partial curve, poor fit] |
| O=C1CSc2nc3ccccc3n21 | inactive |
| CCc1nc(SCC(=O)Nc2ccccc2OC)c2c(C)c(C)sc2n1 | inconclusive: 28.2 µM [inhibitor, single point] |
| Oc1ccc(N2CCN(CC(O)c3ccccc3)CC2)cc1 (stereo unspecified) | inconclusive: 3.16 µM [inhibitor, partial curve, poor fit] |
| COc1ccc(NS(=O)(=O)c2ccc(C)c(C(=O)N3CCCCCCC3)c2)cc1 | inconclusive: 31.6 µM [inhibitor, single point] |
| O=C(Nc1ccc(NC(=O)C2CC2)cc1)c1cccs1 | inactive |
| CCC1Nc2ncnc(N3CCN(c4ccccc4)CC3)c2N(Cc2ccc(Br)cc2)C1=O (stereo unspecified) | inconclusive: 5.62 µM [inhibitor, full curve] |
| COC(=O)c1cccc(Nc2c(-c3ccc(O)c(OC)c3)nc3nc[nH]n23)c1 | inactive |
| CCOc1nc(-c2ccccc2)ccc1-c1noc(COC)n1 | inactive |
| CC12CCCCN1CCCc1c2[nH]c2ccccc12 (stereo unspecified) | inconclusive: 6.31 µM [inhibitor, partial curve, poor fit] |
| CN(C)CCCN(C(=O)CCS(=O)(=O)c1ccccc1)c1nc2cc3c(cc2s1)OCO3 | inconclusive: 11.2 µM [inhibitor, single point] |
| CN(C)S(=O)(=O)NCCNc1ccc(C(F)(F)F)cc1[N+](=O)[O-] | inconclusive: 28.2 µM [inhibitor, single point] |
| O=C(COC(=O)C1CC1)Nc1ccc(N=Nc2ccccc2)cc1 | inactive |
| CC(=O)c1cccc(-c2ccnc3c2CC(C(=O)NCCC(F)(F)F)O3)c1 (stereo unspecified) | inactive |
| CC(C)(C)OC(=O)NCCc1nnc(S(=O)(=O)Cc2ccc(Cl)cc2Cl)o1 | inconclusive: 28.2 µM [inhibitor, single point] |
